± gives the standard deviation. This is a selection; strong and weak results do not stand in their true shares.
Each sequence was assayed on MIWI (PIWIL1) piRISC loaded with piRNA #1 (30 nt) (assay: pre-steady-state target cleavage rate (min^-1); MIWI and MILI are mouse PIWI proteins and EfPiwi is from a freshwater sponge; tags in brackets are library labels; higher = faster piRNA-guided slicing of the target). Details: guide: piRNA #1 5'p-UGAGGUAGUAGGUUGUAUAGUAUCCAGAGG; auxiliary factor: 500 nM mouse GTSF1.
Summary of the method: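 Cleave-'n-Seq: a transcribed, DNA-blocked target RNA library (0.1 nM) was mixed with 1 nM active affinity-purified piRISC carrying one synthetic guide, with or without 500 nM GTSF1 partner protein, in HEPES–potassium acetate buffer at 33 °C for 0–8 or 0–960 min. Uncleaved targets were sequenced and normalised to depth and to weakly complementary targets. Three trials were pooled, and k3 was capped at 0.0001 min^-1. The pre-steady-state cleavage rate came from a burst-and-steady-state fit.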

| Sequence | pre-steady-state target cleavage rate |
| --- | --- |
| GGAGACCUAUCUAUACAACCUACUAGGAGA [g6:g20:cont:t1A] | 0.031 ± 0.011 |
| CCUCUGGAUACUAUACAACGUACUACCACA | 0.706 ± 0.059 |
| CCUCUGGAUACUAUAACAACCUACUACCUCA | 1.85 ± 0.13 |
| GGUCAGGAUACUAUACAACCAACUACCUCA | 0.165 ± 0.016 |
| GGAGACGAUACUAUUCAACCUACUACCUCA | 1.54 ± 0.093 |
| GCUCUGGAUACUAUACAACUUACUACCUCA | 0.622 ± 0.023 |
| GGAGAGGAUACUAUACAUCCUACUACCACA | 0.252 ± 0.023 |
| GGAGACCAUACUAUACAACCUACUAUCUCA | 1.65 ± 0.15 |
| GGAGAGGAUACUAUACAGCCUACUACCUCA | 0.57 ± 0.027 |
| GCUCUGGAUACAAUACAAGCUACUACCUCA | 1.18 ± 0.067 |
| GGUCUGGUUACUAUACUACCUACUACCUCA | 1.5 ± 0.12 |
| GGAGAGGAUACUAUACAACCUACGACCUCA | 0.714 ± 0.055 |
| CCUCUUGGAUACUAUACAACCUACUACCUCA | 2.3 ± 0.12 |
| GGAGACCAUAAUAUACAACCUACUACCUCA | 0.791 ± 0.093 |
| GGAGACCUAUGUAUACAACCUACUACUCUCA | 0.0944 ± 0.012 |
| GGAGAGGAUACUUUACAACCUAGUACCUCA | 0.118 ± 0.02 |
